Source: PubChem BioAssay AID445 (National Center for Advancing Translational Sciences (NCATS), 2006)
In all, about 110,000 compounds went through this assay and about 40 (0.04%) were called active. This list was built around the results that the source calls inconclusive (neither active nor inactive); the mix of calls is not that of the screen. The call rests on the fitted dose curve; in most records, active means well fitted curve in the direction sought with a large enough effect in the signal ratio (not every such curve was filed as active); inconclusive means small, poorly fitted or top-dose-only effect, or a change in a side signal; inactive means flat fitted curve, though single readings scatter; the % refers to the signal ratio. Potencies beside an inconclusive call are fits to weak or partial responses and may not hold up.

assay: IkB Signaling; conditions: ABC-DLBCL IkBa-CBG/CBR dual luciferase ratio (green luciferase fused to IkBa over red control in OCI-Ly3 lymphoma cells), 4 h; IkBa stabilization activation: at 57.1 µM (top of the series), scaled: untreated 0%, proteasome inhibitor 100% unless noted;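 on IkBa stabilization activation: 0% = basal untreated cells and 100% = reference inhibitor full response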
Outline: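 Curves were fitted separately to fusion (green), unfused (red) and ratio luminescence, then classed by r2, magnitude and activity. Cells: OCI-Ly3, 4 h compound plus doxycycline at 37C; 10 uM MG-132 defined full response.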
Potency means the concentration at half of the fitted maximal effect.

SMILES	IkBa stabilization activation	Potency
Cc1ccc(NC(=O)c2cc(S(=O)(=O)NC3CCCCCC3)ccc2F)cc1F	inconclusive: -0.0621% [signal inhibitor]	–
COc1ccc2[nH]cc(CCN=C(NC(=O)c3cccc(Cl)c3)Nc3nc(C)cc(C)n3)c2c1	inconclusive: 2.66% [signal inhibitor]	–
Cc1nc(Nc2nc3ccccc3o2)nc2c1CCC2	inactive: 12.5%	–
CC(NC(=O)COc1ccccc1)C(=O)OCC(=O)c1cc2ccccc2o1 (stereo not drawn)	inconclusive: 3.37% [signal inhibitor]	–
COc1ccc(N(CC(=O)O)N=O)cc1	inactive: -1.14% [at 11.4 µM, scaled: untreated 0%, proteasome inhibitor 100%]	–
O=C(CSc1nc2c([nH]c3ccccc32)c(=O)n1-c1ccccc1)NCc1ccc(F)cc1	inconclusive: 1.08% [signal inhibitor]	–
CN1CCN(c2oc(COc3ccc(-c4ccccc4)cc3)nc2C#N)CC1	inconclusive: 2.68% [signal inhibitor]	–
O=C(CN1C(=O)C2(SCC(=O)N2c2ccccc2)c2ccccc21)Nc1ccccc1C(F)(F)F (stereo not drawn)	inconclusive: 9.52% [signal inhibitor]	–
O=S(=O)(c1cccc(-c2nnc(SC(F)F)n2-c2ccccc2)c1)N1CCCCC1	inconclusive: 1.72% [signal inhibitor]	–
COc1ccc(C(=O)c2cnc3ccc(C)cc3c2S(=O)(=O)c2ccccc2)cc1	–	inconclusive: 10 µM [signal inhibitor, partial curve]
COC(=O)C1=C(C(=O)c2ccc(C)cc2)C(c2ccc(O)c(OC)c2)n2nnnc2N1 (stereo not drawn)	inactive: -0.693%	–
Cn1cnnc1SCC(=O)c1cc2ccccc2oc1=O	inconclusive: 14.3% [signal inhibitor]	–
Cc1ccc(CN2C(=O)C(O)(CC(=O)c3ccc(C)cc3)c3ccccc32)cc1 (stereo not drawn)	–	inconclusive: 25.1 µM [rising, partial curve]
CCN(C(=O)CCS(=O)(=O)c1ccc2c(c1)oc(=O)n2C)c1ccc(OC)cc1	inconclusive: 0.934% [signal inhibitor]	–
Cc1[nH]c2ccc(C(=O)Nc3ccc(F)cc3)cc2c1C	inconclusive: 10.5% [signal inhibitor]	–
Cc1ccccc1CN1C(=O)c2ccccc2S(=O)c2ccc(C(=O)NCc3ccco3)cc21 (stereo not drawn)	inconclusive: 2.02% [signal inhibitor]	–
Clc1ccccc1C(c1nnnn1Cc1ccco1)N1CCN(Cc2ccco2)CC1 (stereo not drawn)	inactive: 8.01%	–
Cc1ccc(NC(=O)CSc2nc3c(c(=O)[nH]2)CCC3)cc1Cl	inconclusive: 3.1% [signal inhibitor]	–
